# Assay results published in the supplement of paper PMC9446081.
# In all, about 39,000 compounds went through this assay and about 220 (0.56%) showed activity. Some of the results follow.
# System: Escherichia coli K-12 BW25113
# Experiment: relative growth (OD600 normalised to plate interquartile mean) (fraction); higher = less growth inhibition, active = 0.2 or less
# Conditions: 50 µM; LB; incubation time: overnight (16-24 h)
# 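Note: static incubation at 37 °C against the wild-type strain, values averaged over two biological replicates.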
row,Compound,relative growth
1,C[C@@H]1CN([C@@H](C)CO)S(=O)(=O)c2ccc(C#Cc3cccc(F)c3)cc2O[C@@H]1CN(C)S(=O)(=O)c1ccccc1F,inactive: 1.06
2,COc1ccc(CN(C)C[C@H]2Oc3c(NC(=O)CCCCCC(=O)Nc4ccccc4N)cccc3C(=O)N([C@H](C)CO)C[C@@H]2C)cc1,inactive: 0.996
3,C1N2CN3CN1CN(C2)C3,inactive: 1.01
4,CCn1ncc(Br)c1CN,inactive: 1.02
5,C[C@@H]1CN([C@@H](C)CO)C(=O)Cc2cc(NC(=O)C3CCCCC3)ccc2O[C@@H]1CN(C)Cc1ccc(Oc2ccccc2)cc1,inactive: 1.02
6,C[C@H](CO)N1C[C@H](C)[C@@H](CN(C)C(=O)CCC(F)(F)F)OCCCC[C@H](C)Oc2ccc(NS(=O)(=O)c3ccccc3)cc2C1=O,inactive: 0.967
7,COc1ccc(S(=O)(=O)Nc2ccc3c(c2)CC(=O)N([C@@H](C)CO)C[C@H](C)[C@@H](CN(C)Cc2ccc(Oc4ccccc4)cc2)O3)cc1,inactive: 1.03
8,O=C(NO)c1ccc(-c2cn(CC(=O)N3CCOCC3)nn2)s1,inactive: 1.02
9,O=C(C[C@@H]1C[C@@H]2c3cc(NC(=O)Cc4ccncc4)ccc3O[C@@H]2[C@H](CO)O1)NCCc1ccccc1,inactive: 0.986
10,C[C@H]1CN([C@@H](C)CO)C(=O)Cc2cc(NS(C)(=O)=O)ccc2O[C@@H]1CN(C)S(=O)(=O)c1ccccc1,inactive: 1.04
11,Cc1ccccc1NC(=O)C[C@H]1CC[C@H]2[C@@H](COc3ccc(NC(=O)c4ccc(Cl)cc4)cc3C(=O)N2C)O1,inactive: 1.02
12,C[C@@H]1CN([C@H](C)CO)C(=O)c2cc(NC(=O)Nc3ccc(F)cc3)ccc2O[C@@H](C)CCCCO[C@H]1CN(C)Cc1ccc2c(c1)OCO2,inactive: 1.03
13,CO[C@H](CN(C)C(=O)c1ccc2c(c1)OCO2)[C@H](C)CN([C@@H](C)CO)S(=O)(=O)c1ccc(Cl)cc1,inactive: 1.01
14,C[C@@H]1CN([C@H](C)CO)C(=O)c2cc(NC(=O)Nc3ccc4c(c3)OCO4)ccc2O[C@@H]1CN(C)S(=O)(=O)c1cn(C)cn1,inactive: 0.999
15,C[C@H](CO)N1C[C@H](C)[C@H](CN(C)Cc2ccc(C(=O)O)cc2)OCCCC[C@H](C)Oc2ccc(NS(=O)(=O)c3ccccc3)cc2C1=O,inactive: 0.982
16,CC(C)NC(=O)N(C)C[C@H]1Oc2c(NC(=O)C3CCCCC3)cccc2C(=O)N([C@@H](C)CO)C[C@H]1C,inactive: 0.983
17,O=C(C[C@@H]1CC[C@@H](NC(=O)Cc2ccccn2)[C@H](CO)O1)NCCCN1CCOCC1,inactive: 0.998
18,COc1ccccc1-c1ccc2c(c1)O[C@@H](CN(C)S(=O)(=O)c1ccccc1)[C@H](C)CN([C@@H](C)CO)S2(=O)=O,inactive: 1.02
19,NC(N)=Nc1nc(CSCCC(N)=NS(N)(=O)=O)cs1,inactive: 1
20,Cc1ccc(S[C@]2(C(=O)NCC(C)C)CC(=O)N(Cc3ccccc3C(F)(F)F)[C@@H]2c2ccc(CO)cc2I)cc1,inactive: 1.01

row,Compound,relative growth
1,C[C@H](CO)N1C[C@H](C)[C@@H](CN(C)Cc2ccccc2)OCCCC[C@H](C)Oc2ccc(NC(=O)c3ccccc3)cc2C1=O,inactive: 0.991
2,O=C(CN1CCOCC1)N[C@H]1CC[C@@H](CCNS(=O)(=O)c2ccccc2F)O[C@H]1CO,inactive: 0.931
3,C[C@@H]1CN([C@@H](C)CO)S(=O)(=O)c2ccc(C#CC3CCCC3)cc2O[C@@H]1CN(C)C(=O)Cc1ccncc1,inactive: 0.911
4,CC(C)CC#Cc1ccc2c(c1)O[C@@H](CN(C)C(=O)c1ccccn1)[C@H](C)CN([C@@H](C)CO)S2(=O)=O,inactive: 1.01
5,C=C1CC[C@@H]2C(C)(C)CCC[C@@]2(C)[C@@H]1CC/C(C)=C/C(=O)OC,inactive: 1.01
6,C[C@H]1CN([C@@H](C)CO)C(=O)c2cc(NC(=O)CCC(F)(F)F)ccc2O[C@@H]1CN(C)S(C)(=O)=O,inactive: 1.04
7,Cc1noc(C)c1NC(=O)N(C)C[C@@H]1Oc2ccc(NC(=O)Nc3ccc(C(F)(F)F)cc3)cc2C(=O)N([C@H](C)CO)C[C@@H]1C,inactive: 1.01
8,C[C@@H]1CN([C@H](C)CO)C(=O)c2cc(NC(=O)NC3CCCCC3)ccc2O[C@@H](C)CCCCO[C@H]1CN(C)C(=O)Nc1ccc(F)cc1,inactive: 1.01
9,Cc1noc(C)c1NC(=O)N(C)C[C@H]1Oc2ccc(NS(=O)(=O)c3cn(C)cn3)cc2C(=O)N([C@H](C)CO)C[C@H]1C,inactive: 0.989
10,C[C@@H]1CCCCO[C@@H](CN(C)CC2CCCCC2)[C@@H](C)CN([C@H](C)CO)C(=O)c2cc(NS(=O)(=O)c3ccc(Cl)cc3)ccc2O1,inactive: 0.971
11,C[C@H]1CN([C@@H](C)CO)C(=O)c2cc(Br)cnc2O[C@@H]1CN(C)S(=O)(=O)c1cn(C)cn1,inactive: 0.842
12,C[C@@H]1CN([C@H](C)CO)C(=O)c2cc(NC(=O)Nc3ccc4c(c3)OCO4)ccc2O[C@@H](C)CCCCO[C@@H]1CN(C)C(=O)C1CCCCC1,inactive: 1.02
13,CCC(=O)N1C[C@]2(CN(C2)C(=O)CN2CCOCC2)c2c([nH]c3cc(ccc23)OC)[C@H]1CO,inactive: 1.01
14,CCC(=C(CC)c1ccc(O)cc1)c1ccc(O)cc1,inactive: 0.666
15,C[C@@H]1CCCCO[C@H](CN(C)C(=O)Cc2ccccc2)[C@@H](C)CN([C@H](C)CO)C(=O)c2cc(NC(=O)c3ccccc3)ccc2O1,inactive: 0.977
16,C[C@H](CO)N1C[C@H](C)[C@@H](CN(C)S(=O)(=O)c2cccs2)Oc2c(NC(=O)c3cnccn3)cccc2C1=O,inactive: 0.991
17,CC(C)NC(=O)N(C)C[C@H]1Oc2ccc(NC(=O)Cn3cnnn3)cc2CC(=O)N([C@H](C)CO)C[C@H]1C,inactive: 0.99
18,C[C@H]1C[C@@](N)(C(=O)O)C1,inactive: 0.981
19,C[C@@H]1CCCCO[C@H](CN(C)Cc2ccccc2)[C@H](C)CN([C@@H](C)CO)C(=O)c2cc(NC(=O)Nc3ccc(C(F)(F)F)cc3)ccc2O1,inactive: 0.959
20,O=C(C[C@@H]1CC=CC[C@H](NC(=O)OCC2c3ccccc3-c3ccccc32)C(=O)OC[C@H](Cc2ccccc2)NC1=O)N[C@@H](CO)Cc1ccccc1,inactive: 0.988

row,Compound,relative growth
1,C[C@@H]1CN([C@H](C)CO)S(=O)(=O)c2ccc(C#CCN(C)C)cc2O[C@H]1CN(C)Cc1ccc(F)cc1,inactive: 0.95
2,C[C@@H]1CN([C@H](C)CO)C(=O)Cc2cc(NC(=O)CCN3CCOCC3)ccc2O[C@@H]1CN(C)S(=O)(=O)c1cn(C)cn1,inactive: 1.01
3,C[C@@H]1CN(CCO)C(=O)c2cc(NC(=O)Nc3ccccc3)ccc2O[C@@H](C)CCCCO[C@H]1CN(C)S(=O)(=O)c1ccc(F)cc1,inactive: 1.02
4,Cc1noc(C)c1NC(=O)Nc1ccc2c(c1)C(=O)N([C@H](C)CO)C[C@@H](C)[C@@H](CN(C)C(=O)NC1CCCCC1)OCCCC[C@@H](C)O2,inactive: 0.989
5,C[C@@H]1CCCCO[C@@H](CN(C)CC2CCCCC2)[C@H](C)CN([C@H](C)CO)C(=O)c2cc(NC(=O)CCCCCC(=O)Nc3ccccc3N)ccc2O1,inactive: 0.993
6,CC[C@H](C)[C@H](N)C1=N[C@H](C(=O)N[C@@H](CC(C)C)C(=O)N[C@H](CCC(=O)O)C(=O)N[C@H](C(=O)N[C@H]2CCCCNC(=O)[C@H](CC(N)=O)NC(=O)[C@@H](CC(=O)O)NC(=O)[C@H](Cc3cnc[nH]3)NC(=O)[C@@H](Cc3ccccc3)NC(=O)[C@H]([C@@H](C)CC)NC(=O)[C@@H](CCCN)NC2=O)[C@@H](C)CC)CS1,inactive: 0.909
7,NCC[S@@](=O)c1c(-c2ccc(F)cc2)[nH]c2ccccc12,inactive: 1.02
8,O=C(C[C@@H]1CC[C@H]2NC[C@@H](O)COC[C@@H]2O1)NCCN1CCCCC1,inactive: 1.01
9,COc1ccc(NC(=O)Nc2ccc3c(c2)[C@H]2C[C@H](CC(=O)N4CCN(C)CC4)O[C@@H](CO)[C@H]2O3)cc1,inactive: 1.01
10,CC(N)C(O)c1cccc(O)c1.O=C(O)C(O)C(O)C(=O)O (centres undefined),inactive: 0.957
11,COc1ccc(CN(C)C[C@H]2OCCCC[C@H](C)Oc3ccc(NS(=O)(=O)c4ccc(Cl)cc4)cc3C(=O)N([C@H](C)CO)C[C@@H]2C)cc1,inactive: 0.998
12,C[C@H](CO)N1C[C@H](C)[C@H](CN(C)C(=O)Nc2cccc(C(F)(F)F)c2)OCc2ccccc2-c2c(n(C)c3ccccc23)C1=O,inactive: 1.03
13,C[C@@H]1CN([C@H](C)CO)C(=O)c2cc(NC(=O)c3ccccc3)ccc2O[C@@H](C)CCCCO[C@H]1CN(C)S(=O)(=O)c1cccs1,inactive: 1.04
14,Cn1cc(N2C[C@]3(CNCCOC3)OCC2=O)cn1,inactive: 0.996
15,C[C@H]1CN([C@@H](C)CO)S(=O)(=O)c2ccc(-c3ccc(C(=O)N(C)C)cc3)cc2O[C@@H]1CN(C)C(=O)Cc1ccccn1,inactive: 0.968
16,O=C(NCc1ccc(F)cc1)[C@H]1[C@H](CO)[C@H]2Cn3c(cccc3=O)[C@@H]1N2C(=O)c1cnccn1,inactive: 0.985
17,C[C@@H]1CCCCO[C@H](CN(C)Cc2ccc(C(=O)O)cc2)[C@@H](C)CN([C@H](C)CO)C(=O)c2cc(NC(=O)C3CCCCC3)ccc2O1,inactive: 1.01
18,C[C@@H]1CN([C@@H](C)CO)C(=O)Cc2cc(NC(=O)c3ccncc3)ccc2O[C@H]1CN(C)Cc1ccc(C(=O)O)cc1,inactive: 1
19,C[C@@H]1CN([C@@H](C)CO)C(=O)c2cc(NC(=O)C3CCCCC3)ccc2O[C@H]1CN(C)C(=O)Nc1ccc(C(F)(F)F)cc1,inactive: 1.02
